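1) Cells in 96-well plates. 2) Compound, 48 h, 5 concentrations. 3) Linear interpolation between surrounding doses. 4) Unreached endpoint = highest concentration. GI50 marks 50% less growth.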 Some entries of the source have several records that differ or are many. They are shown here; other results are not. An entry can have further records. For some of these results: Results that share an entry repeat one measurement across runs, samples, wells, individuals or studies. Brackets tell where a record comes from. The letters are not those of the source and start again with each entry.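 At the TGI there is no net growth.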 For some of these results: Records of one sample usually come from different ranges of test concentrations, which the source does not state; some values may only mark the edge of a range.

Here are results for three compounds from PubChem BioAssay (NCI).

Among the test systems are HOP-62 NSCLC; KM12 colon; OVCAR-4 ovarian; OVCAR-8 ovarian; PC-3 prostate; SW-620 colon; T-47D breast; MALME-3M melanoma; MDA-MB-435; SK-MEL-2 melanoma; A498 renal; HCC-2998 colon; LOX IMVI melanoma; MCF7 breast; MOLT-4 leukemia; NCI-H23 lung; NCI-H460 lung; OVCAR-3 ovarian; SF-539 CNS; SK-MEL-5 melanoma.
Assay in all cases: NCI anticancer screen, dose series, 48 h

In the case of `CC(C)[C@]12O[C@H]1[C@@H]1O[C@]13[C@]1(O[C@H]1C[C@H]1C4=C(CC[C@@]13C)C(=O)OC4)[C@@H]2O`, the TGI in the assay on HOP-62 NSCLC was 240 nM [sample A] and > 100 µM [sample B]; in the assay on KM12 colon it was 198 nM [sample A] and > 22.6 µM [sample B]; with OVCAR-4 ovarian it was 27.4 nM [sample A] and 304 nM [sample B]; with OVCAR-8 ovarian, 148 nM [sample A] and > 100 µM [sample B]; with PC-3 prostate it was 94.3 nM [sample A] and > 100 µM [sample B]; in the assay on SW-620 colon it was 136 nM [sample A] and > 100 µM [sample B]. For the same compound, the TGI in the assay on T-47D breast is 72.6 nM [sample A, 1 test] and > 100 µM [sample B, mean of 2 tests].

In the case of `CN(C)CCOc1ccc(-c2nc(-c3ccc4c(c3)CC/C4=N\O)c(-c3ccncc3)[nH]2)cc1`, the TGI is 21.3 nM [sample A, mean of 2 tests] and 2 µM [sample B, mean of 2 tests] in the assay with MALME-3M melanoma; 1.48 µM [sample A, mean of 2 tests] and 24 µM [sample B, mean of 4 tests] in the assay with SK-MEL-2 melanoma. Also, the GI50 in the assay with MDA-MB-435 is 62.4 nM [sample A, mean of 2 tests] and 1.46 µM [sample B, mean of 2 tests].

For `COc1cc(C2c3[nH]c4ccccc4c3C[C@H]3COC(=O)N23)cc(OC)c1OC` (some centres not stated), the TGI is 763 nM and < 10 nM with A498 renal; 566 nM and 47 nM in the assay with HCC-2998 colon; 8.37 µM and > 100 µM in the assay on HOP-62 NSCLC; 3.28 µM and > 100 µM with LOX IMVI melanoma; 7.86 µM and > 100 µM in the assay on MCF7 breast; 4.89 µM and 317 nM in the assay with MOLT-4 leukemia. In addition, the TGI was 4.05 µM and > 100 µM in the assay with NCI-H23 lung; 3.84 µM and > 100 µM in the assay with NCI-H460 lung; 134 nM and < 10 nM with OVCAR-3 ovarian; 6.8 µM and > 100 µM with PC-3 prostate; 108 nM and < 10 nM in the assay with SF-539 CNS; 80.2 nM and 26.7 µM in the assay on SK-MEL-5 melanoma.
